Screen size: about 46,000 compounds; about 60 (0.1%) were called active. Inconclusive results (about 3%) are left out. The call rests on the fitted dose curve; in most records, active means well fitted inhibition curve with a large enough effect; inconclusive means small, poorly fitted or top-dose-only effect; inactive means no such curve, though single readings can be large or run the other way. This is one part of the list.

From PubChem BioAssay AID1963576 (National Center for Advancing Translational Sciences (NCATS), 2024) come the findings set out here.

A short description of this assay: Primary qHTS assay for Inhibitors of ovarian cancer metastasis using an organotypic tumor microenvironment (TME) model. Further: nearly all actives have a fitted effect of over 65% in size.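 On activity change, negative = inhibition: plate controls were DMSO wells for no effect and tomatine positive control wells for full effect.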 The settings on record: SKOV3ip1-GFP adhesion/invasion on 3D omental model, fluorescence; series mostly up to 45.8 µM; activity change, negative = inhibition: at the top concentration. In a few lines:
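A 3D layer of primary human omental fibroblasts, mesothelial cells, fibronectin and collagen I, grown 48 hr, received SKOV3ip1-GFP cells in serum-free medium plus compounds at 0.36-46 umol/L. After 2 hr RT and 16 hr 37 C, fixed adherent GFP cells were counted; normalized to DMSO and tomatine.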
Regarding `Cc1cc(-c2ccc(C)c(S(=O)(=O)NC(c3cccs3)C(C)C)c2)on1` (configuration not stated), the “activity change, negative = inhibition” value was inactive: -15.6%.

In the case of `O=C(COc1ccc(F)cc1)OCc1cc(=O)n2nc(C3CCCCC3)sc2n1`, the “activity change, negative = inhibition” value is inactive: -14.4%. Same read-out and setting: for `COc1ccc(C(C(=O)NCc2ccccc2)N(C(=O)Cn2nnc3ccccc32)c2cccc(OC)c2)cc1` (configuration not stated) the value was inactive: -0.0494%; for `CC1=C(C(=O)N2CCN(c3cc(C)ccc3C)CC2)C2(CCC(C)CC2)OC1=O` (configuration not stated), inactive: -28.7%; for `Cc1ccc(NC(=O)Cn2cc(C(=O)C3CC3)c3ccccc32)c(C)c1`, inactive: -14.5%. With `CC(C)CCNC(=O)c1ccc2c(c1)NC(=O)C(CS(=O)(=O)Cc1ccc(F)cc1)N2` (configuration not stated), the compound was classed as inactive. For `CCc1nnc(SCc2c(F)cccc2Cl)c2cc3sccc3n12`, the “activity change, negative = inhibition” value is inactive: -2.72%. Same read-out and setting: the same measure for `COc1ccccc1C(=O)Nc1nc2nc(C)cc(=O)n2[nH]1`: inactive: -2.6%. Still for that read-out and setting: the same measure for `Cc1cc(C)c2sc(NC(=O)c3ccc(S(=O)(=O)N4CCCC4)cc3)nc2c1`: inactive: -5.97%.

Regarding `CCOc1ccc(NC(=O)C2(c3cccs3)CCOCC2)cc1`, the call was inactive. Turning to `CCOC(=O)c1cccc(NC(=O)CCc2nc3cccnc3n2-c2ccccc2)c1`, the “activity change, negative = inhibition” value is inactive: -11.2%. As for `O=C(O)CSCC(=O)NC1CCSC1=O` (configuration not stated), the “activity change, negative = inhibition” value was inactive: 16.6%. Consider `Cc1cc2c(F)c(Oc3ncnn4cc(OC[C@@H](C)O)c(C)c34)ccc2[nH]1`, for which the “activity change, negative = inhibition” value was inactive: 7.6%. In the case of `CCOC(=O)c1c(C)[nH]c(CCC(=O)Nc2cc(Cl)ccc2OC)c1C`, the result was inactive. The same measure, in the same setting: the same measure for `O=C(CN1C(=O)COc2ccc(S(=O)(=O)NC3CCCC3)cc21)Nc1ccc(Cl)cc1F`: “inactive”. The same measure, in the same setting: for `COc1ccc(OC)c(S(=O)(=O)Nc2ccc3c(c2)n(C)c(=O)n3C)c1` the value was “inactive”. Same read-out and setting: for `CCOC(=O)c1c(C)oc2ccc(N(C(=O)c3ccncc3)S(=O)(=O)c3ccc(CC)cc3)cc12` the value was “inactive”; for `COc1cc(OC)cc(C(=O)NCCc2csc3nc(-c4ccccc4F)nn23)c1`, “inactive”. Regarding `Cc1sc(-n2cccc2)c(C(C)NC(=O)Nc2cccc(C(F)(F)F)c2)c1C` (configuration not stated), the “activity change, negative = inhibition” value is inactive: -0.439%. For the compound `Cc1ccc(OCCSc2nc3ccc(NC(=O)c4cccs4)cc3s2)cc1`, the compound was classed as inactive.

For `CN(C)S(=O)(=O)N(CC(=O)Nc1ccc(C(F)(F)F)cc1)c1ccccc1`, the “activity change, negative = inhibition” value was inactive: -9.95%.

As for `CCc1ccc(NC(=O)c2nc3nc(C)cc(C(F)F)n3n2)cc1`, the “activity change, negative = inhibition” value was inactive: -6.31%. `Cc1nc(N2CCOCC2)c2c(C(=O)NCc3ccc(Cl)cc3)c(C)oc2n1`: the compound was classed as inactive. In the case of `COc1ccc(CNc2nc(-c3ccc(Cl)cc3)nn2S(=O)(=O)c2ccc(C)cc2)cc1`, the compound was called inactive.

Take `COc1ccccc1CNS(=O)(=O)c1cc(Br)cc2c1N(C(=O)C1CC1)CC2`: the “activity change, negative = inhibition” value is inactive: -1.23%. Still for that read-out and setting: for `COc1ccc(CNC(=O)c2ccc3c(c2)N(Cc2cc(C)ccc2C)C(=O)CS3)cc1` the value was inactive: 0.766%.

On to `CCC(CC)c1nn2c(=O)cc(COc3ccc(NC(=O)c4cccc(C)c4)cc3)nc2s1`, for which the outcome was inactive. Regarding `O=C(CCC(=O)N1CCSc2ccccc21)Nc1ccc(Cl)cc1`, the “activity change, negative = inhibition” value is inactive: -5.39%. The same measure, in the same setting: the same measure for `COc1cccc2c1C(=O)c1c(O)c3c(c(O)c1C2=O)C[C@@](O)(C(C)=O)C[C@H]3O[C@H]1C[C@H](N)[C@H](O)[C@H](C)O1`: inactive: 1.76%. The same measure, in the same setting: for `COc1cccc(CNC(=O)c2cc(-c3ccc(Cl)cc3)n[nH]2)c1` the value was inactive: -5.69%.

As for `CCOc1cccc(C(=O)N(Cc2ccc(C)o2)C2CCS(=O)(=O)C2)c1` (configuration not stated), the “activity change, negative = inhibition” value was inactive: 4.73%. With `Cc1cc(NS(=O)(=O)c2ccc(NC(=O)COc3c(C)ccc(C)c3C)cc2)nc(C)n1`, the “activity change, negative = inhibition” value was inactive: 7.58%. The same measure, in the same setting: for `CCOc1ccc(-n2c(=O)c3c(C)c(C)sc3n(CC(=O)C(C)(C)C)c2=O)cc1` the value was inactive: 2.55%. For the compound `COc1ccccc1-c1nn2c(=O)cc(CN3CCN(C(=O)Nc4ccc(C)cc4Cl)CC3)nc2s1`, the result was inactive. For the compound `Cc1ccc(C2C(=O)N(C3CCC(C)CC3)CC(=O)N2C2CCCC2)cc1` (configuration not stated), the result was inactive. Turning to `CCOc1ccc(CC(=O)NC2CC(=O)N(c3cccc(F)c3)C2)cc1` (configuration not stated), the “activity change, negative = inhibition” value is inactive: 1.62%. Same read-out and setting: the same measure for `CC(CNC(=O)c1ccc2c(c1)nc1n2CCCCC1)c1ccccc1` (configuration not stated): inactive: -8.88%; for `COc1ccccc1OCC(=O)N(Cc1ccco1)Cc1ccccc1F`: inactive: -6.74%; for `O=c1cc(COc2ccc(Cl)cc2Cl)nc2scc(-c3ccccc3)n12`: inactive: -23.4%. On the same count and under the same terms, for `CCCCC(=O)Nc1nnc(S(=O)(=O)N(C)Cc2ccc(Cl)cc2)s1` the value was inactive: -2.75%. On the same count and under the same terms, the same measure for `Cc1cc(C)cc(NC(=O)CCc2c(C)nc3nc(CNC(=O)c4cccc(F)c4)nn3c2C)c1`: inactive: 4.2%. For `COCCCNc1nc2c(c(=O)n(Cc3ccc(F)cc3)c(=O)n2C)n1C`, the “activity change, negative = inhibition” value was inactive: 11.7%. Still for that read-out and setting: the same measure for `COc1ccc(CNC(=O)COCc2cc(-c3ccc4c(c3)OCO4)on2)cc1`: inactive: 9.77%. On to `CCc1cccc(C)c1NC(=O)c1ccc2c(c1)CCN2S(=O)(=O)c1ccc(Cl)cc1`, for which the “activity change, negative = inhibition” value was inactive: -5.93%. Regarding `COc1cc(C(=O)NCC(c2ccco2)S(=O)(=O)c2cccs2)cc(OC)c1OC` (configuration not stated), the “activity change, negative = inhibition” value is inactive: -17.8%. Same read-out and setting: the same measure for `CCS(=O)(=O)N1CCc2cc(C(=O)Nc3ccc(Br)cc3F)ccc21`: inactive: 7.32%.

In the case of `CC(=O)c1ccc(N2CCN(C(=O)c3cn(C)c(=O)c4c3c3ccccc3n4C)CC2)cc1`, the “activity change, negative = inhibition” value is inactive: 5.64%.
